Test results reported in the supplement of paper PMC12217912.
The other results are listed elsewhere or left out. The full chains were built here from the parent and the listed change. Values near 0.05 are background.

B1: TEV protease; numbered along this chain (parent)
chain: MGESLFKGPRDYNPISSSICHLTNESDGHTTSLYGIGFGPFIITNKHLFRRNNGTLVVQSLHGVFKVKDTTTLQQHLVDGRDMIIIRMPKDFPPFPQKLKFREPQREERICLVTTNFQTKSMSSMVSDTSCTFPSGDGIFWKHWIQTKDGQCGSPLVSTRDGFIVGIHSASNFTNTNNYFTSVPKNFMELLTNQEAQQWVSGWRLNADSVLWGGHKVFMVKPEEPFQPVKEATQL

Variants of: B1
Experiment: raw area under fraction-flipped curve 0-4 h after induction (AUC4h, not background-subtracted), DNA-recorder readout of cleavage of the substrate (dimensionless); higher = more cleavage of the substrate by the protease variant
Details: temperature: 34 °C; time window: 0-4 h after rhamnose induction
Method: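 In vivo DNA recorder in E. coli TOP10(DE3) ΔrhaA at 34 °C. Each TEVp single-site mutant (parent TEVp 0) is paired with a single-site variant of the 7-mer TEVs (canonical ENLYFQ|S). The substrate sits between flexible linkers in a Bxb1-sfGFP-TEVs-SsrA fusion, so cleavage stabilises Bxb1 and speeds flipping of a recombination array, read by NGS. The value is the raw area under the fraction-flipped curve over 0-4 h after rhamnose induction (AUC4h), with ≥20 reads per time point. It is not background-subtracted; inactive controls average about 0.047.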
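Note: Bxb1 expression induced with 0.2% (w/v) L-rhamnose at OD600 near 0.5, cultures sampled hourly, flipped fraction per protease–substrate barcode pair counted by paired-end Illumina sequencing.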

Variant | area with substrate ENLAFQS | area with substrate ENLDFQS | area with substrate ENLEFQS | area with substrate ENLFFQS | area with substrate ENLHFQS | area with substrate ENLIFQS | area with substrate ENLKFQS | area with substrate ENLLFQS | area with substrate ENLMFQS | area with substrate ENLNFQS | area with substrate ENLPFQS | area with substrate ENLQFQS | area with substrate ENLRFQS | area with substrate ENLSFQS | area with substrate ENLVFQS | area with substrate ENLWFQS | area with substrate ENLCFQS | area with substrate ENLGFQS | area with substrate ENLTFQS
MGESLFKGPRDYNPISSSICHLTNESDGHTTSLYGIGFGPFIITNKFLFRRNNGTLVVQSLHGVFKVKDTTTLQQHLVDGRDMIIIRMPKDFPPFPQKLKFREPQREERICLVTTNFQTKSMSSMVSDTSCTFPSGDGIFWKHWIQTKDGQCGSPLVSTRDGFIVGIHSASNFTNTNNYFTSVPKNFMELLTNQEAQQWVSGWRLNADSVLWGGHKVFMVKPEEPFQPVKEATQL [H47F] | 0.0516 | 0.0648 | 0.0541 | 0.0532 | 0.0489 | 0.0621 | 0.0647 | 0.0389 | 0.0559 | 0.076 | 0.039 | 0.0747 | 0.0677 | 0.0408 | 0.0396 | 0.0516 |  |  | 
MGESLFKGPRDYNPISSSICHLTNESDGHTTSLYGIGFGPFIITNKYLFRRNNGTLVVQSLHGVFKVKDTTTLQQHLVDGRDMIIIRMPKDFPPFPQKLKFREPQREERICLVTTNFQTKSMSSMVSDTSCTFPSGDGIFWKHWIQTKDGQCGSPLVSTRDGFIVGIHSASNFTNTNNYFTSVPKNFMELLTNQEAQQWVSGWRLNADSVLWGGHKVFMVKPEEPFQPVKEATQL [H47Y] | 0.0531 | 0.0595 | 0.0402 | 0.0547 | 0.059 | 0.058 | 0.0671 | 0.054 |  | 0.0659 | 0.0559 | 0.0608 | 0.0588 | 0.0629 | 0.0539 | 0.0552 | 0.0612 | 0.05 | 
MGESLFKGPRDYNPISSSICHLTNESDGHTTSLYGIGFGPFIITNKDLFRRNNGTLVVQSLHGVFKVKDTTTLQQHLVDGRDMIIIRMPKDFPPFPQKLKFREPQREERICLVTTNFQTKSMSSMVSDTSCTFPSGDGIFWKHWIQTKDGQCGSPLVSTRDGFIVGIHSASNFTNTNNYFTSVPKNFMELLTNQEAQQWVSGWRLNADSVLWGGHKVFMVKPEEPFQPVKEATQL [H47D] | 0.067 | 0.0764 | 0.0588 | 0.0545 | 0.0611 | 0.0755 | 0.0649 |  |  | 0.0631 | 0.0585 |  |  | 0.0384 |  | 0.0463 | 0.0534 |  | 
MGESLFKGPRDYNPISSSICHLTNESDGHTTSLYGIGFGPFIITNKHLFRANNGTLVVQSLHGVFKVKDTTTLQQHLVDGRDMIIIRMPKDFPPFPQKLKFREPQREERICLVTTNFQTKSMSSMVSDTSCTFPSGDGIFWKHWIQTKDGQCGSPLVSTRDGFIVGIHSASNFTNTNNYFTSVPKNFMELLTNQEAQQWVSGWRLNADSVLWGGHKVFMVKPEEPFQPVKEATQL [R51A] | 0.0666 |  | 0.0632 |  |  |  |  |  | 0.0673 | 0.0648 | 0.0334 | 0.048 | 0.0716 | 0.104 | 0.124 |  |  |  | 0.0741
MGESLFKGPRDYNPISSSICHLTNESDGHTTSLYGIGFGPFIITVKHLFRRNNGTLVVQSLHGVFKVKDTTTLQQHLVDGRDMIIIRMPKDFPPFPQKLKFREPQREERICLVTTNFQTKSMSSMVSDTSCTFPSGDGIFWKHWIQTKDGQCGSPLVSTRDGFIVGIHSASNFTNTNNYFTSVPKNFMELLTNQEAQQWVSGWRLNADSVLWGGHKVFMVKPEEPFQPVKEATQL [N45V] | 0.0577 | 0.0613 |  | 0.0576 | 0.0731 | 0.0439 | 0.0725 | 0.0653 | 0.0714 | 0.0694 |  | 0.0817 |  | 0.0583 | 0.0663 | 0.0554 | 0.0715 | 0.06 | 
MGESLFKGPRDYNPISSSICHLTNESDGHTTSLYGIGFGPFIITNKHLFRRNNHTLVVQSLHGVFKVKDTTTLQQHLVDGRDMIIIRMPKDFPPFPQKLKFREPQREERICLVTTNFQTKSMSSMVSDTSCTFPSGDGIFWKHWIQTKDGQCGSPLVSTRDGFIVGIHSASNFTNTNNYFTSVPKNFMELLTNQEAQQWVSGWRLNADSVLWGGHKVFMVKPEEPFQPVKEATQL [G54H] | 0.0532 | 0.0617 | 0.0651 | 0.0748 | 0.0587 |  | 0.0551 | 0.0527 | 0.0646 | 0.12 | 0.0592 | 0.0642 | 0.0613 | 0.0609 | 0.0911 | 0.0682 |  | 0.0879 | 
MGESLFKGPRDYNPISSSICHLTNESDGHTTSLYGIGFGPFIITNKHLKRRNNGTLVVQSLHGVFKVKDTTTLQQHLVDGRDMIIIRMPKDFPPFPQKLKFREPQREERICLVTTNFQTKSMSSMVSDTSCTFPSGDGIFWKHWIQTKDGQCGSPLVSTRDGFIVGIHSASNFTNTNNYFTSVPKNFMELLTNQEAQQWVSGWRLNADSVLWGGHKVFMVKPEEPFQPVKEATQL [F49K] | 0.0586 | 0.0644 | 0.058 | 0.0564 | 0.0505 | 0.0651 | 0.0695 | 0.0563 | 0.0484 | 0.0546 | 0.0583 | 0.043 | 0.0623 | 0.0609 | 0.0655 | 0.0507 |  | 0.0482 | 0.0299
MGESLFKGPRDYNPISSSICHLTNESDGHTTSLYGIGFGPFIITNKHLVRRNNGTLVVQSLHGVFKVKDTTTLQQHLVDGRDMIIIRMPKDFPPFPQKLKFREPQREERICLVTTNFQTKSMSSMVSDTSCTFPSGDGIFWKHWIQTKDGQCGSPLVSTRDGFIVGIHSASNFTNTNNYFTSVPKNFMELLTNQEAQQWVSGWRLNADSVLWGGHKVFMVKPEEPFQPVKEATQL [F49V] | 0.0599 | 0.062 |  | 0.061 | 0.0567 | 0.0662 | 0.0702 | 0.0567 | 0.0603 | 0.0563 | 0.052 | 0.0737 | 0.0548 | 0.0537 |  | 0.0564 |  | 0.0808 | 
MGESLFKGPRDYNPISSSICHLTNESDGHTTSLYGIGFGPFIITNKHLPRRNNGTLVVQSLHGVFKVKDTTTLQQHLVDGRDMIIIRMPKDFPPFPQKLKFREPQREERICLVTTNFQTKSMSSMVSDTSCTFPSGDGIFWKHWIQTKDGQCGSPLVSTRDGFIVGIHSASNFTNTNNYFTSVPKNFMELLTNQEAQQWVSGWRLNADSVLWGGHKVFMVKPEEPFQPVKEATQL [F49P] | 0.0387 | 0.0645 | 0.0597 | 0.0662 | 0.0573 | 0.0713 | 0.0631 | 0.0526 | 0.0602 | 0.0692 | 0.0592 | 0.0688 |  | 0.0631 | 0.0555 |  | 0.0672 | 0.0619 | 
